Consider 10 variants from the supplement of paper PMC12217912.

B1: TEV protease; numbered along this chain (parent)
chain: MGESLFKGPRDYNPISSSICHLTNESDGHTTSLYGIGFGPFIITNKHLFRRNNGTLVVQSLHGVFKVKDTTTLQQHLVDGRDMIIIRMPKDFPPFPQKLKFREPQREERICLVTTNFQTKSMSSMVSDTSCTFPSGDGIFWKHWIQTKDGQCGSPLVSTRDGFIVGIHSASNFTNTNNYFTSVPKNFMELLTNQEAQQWVSGWRLNADSVLWGGHKVFMVKPEEPFQPVKEATQL

Variants of B1 are the subject of this experiment. The experiment can be described thus: raw area under fraction-flipped curve 0-4 h after induction (AUC4h, not background-subtracted), DNA-recorder readout of cleavage of the substrate (dimensionless); higher = more cleavage of the substrate by the protease variant. The conditions noted are these: temperature: 34 °C; time window: 0-4 h after rhamnose induction. The method, then: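 In vivo DNA recorder in E. coli TOP10(DE3) ΔrhaA at 34 °C. Each TEVp single-site mutant (parent TEVp 0) is paired with a single-site variant of the 7-mer TEVs (canonical ENLYFQ|S). The substrate sits between flexible linkers in a Bxb1-sfGFP-TEVs-SsrA fusion, so cleavage stabilises Bxb1 and speeds flipping of a recombination array, read by NGS. The value is the raw area under the fraction-flipped curve over 0-4 h after rhamnose induction (AUC4h), with ≥20 reads per time point. It is not background-subtracted; inactive controls average about 0.047.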

Some of the results follow. The full chains were built here from the parent and the listed change. Values near 0.05 are background.
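Further: Bxb1 expression induced with 0.2% (w/v) L-rhamnose at OD600 near 0.5, cultures sampled hourly, flipped fraction per protease–substrate barcode pair counted by paired-end Illumina sequencing.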

For T181D, the “area with substrate EALYFQS” value came to 0.0617, the “area with substrate EFLYFQS” value came to 0.0624, the “area with substrate EMLYFQS” value stood at 0.0786 and the “area with substrate EQLYFQS” value worked out at 0.0673. Besides, the “area with substrate ERLYFQS” value was determined as 0.0869, the “area with substrate ESLYFQS” value turned out to be 0.0679, the “area with substrate EVLYFQS” value was determined as 0.0594 and the “area with substrate EWLYFQS” value amounted to 0.0619.
As to T181W, the “area with substrate EALYFQS” value worked out at 0.0734, the “area with substrate EELYFQS” value was found to be 0.0727, the “area with substrate EGLYFQS” value was 0.0924 and the “area with substrate EILYFQS” value was 0.0496. For the same variant, the “area with substrate EPLYFQS” value came out at 0.0463, the “area with substrate EQLYFQS” value amounted to 0.0596, the “area with substrate ERLYFQS” value worked out at 0.0764 and the “area with substrate ESLYFQS” value was 0.0645.
With M188G, the “area with substrate EALYFQS” value was determined as 0.103, the “area with substrate EELYFQS” value was 0.117, the “area with substrate EFLYFQS” value was 0.11 and the “area with substrate EGLYFQS” value turned out to be 0.0646. Further, the “area with substrate EMLYFQS” value amounted to 0.122, the “area with substrate EQLYFQS” value was found to be 0.136, the “area with substrate ESLYFQS” value is 0.105 and the “area with substrate EVLYFQS” value worked out at 0.0983.
With M188Q, the “area with substrate EALYFQS” value was 0.08, the “area with substrate ECLYFQS” value worked out at 0.109, the “area with substrate EELYFQS” value is 0.132 and the “area with substrate EGLYFQS” value was 0.101. Further, the “area with substrate EKLYFQS” value was determined as 0.102, the “area with substrate EPLYFQS” value came out at 0.114, the “area with substrate ERLYFQS” value came out at 0.156 and the “area with substrate EVLYFQS” value was determined as 0.0972.
As for M188H, the “area with substrate EALYFQS” value came out at 0.134, the “area with substrate ECLYFQS” value stood at 0.158, the “area with substrate EDLYFQS” value came out at 0.131 and the “area with substrate EGLYFQS” value is 0.0944. Also, the “area with substrate EILYFQS” value came out at 0.109, the “area with substrate EPLYFQS” value is 0.101, the “area with substrate EQLYFQS” value was 0.0942 and the “area with substrate ERLYFQS” value came out at 0.112. Moreover, the “area with substrate ESLYFQS” value was determined as 0.0945, the “area with substrate ETLYFQS” value came to 0.115 and the “area with substrate EVLYFQS” value worked out at 0.124.
M188V: the “area with substrate EALYFQS” value amounted to 0.105, the “area with substrate EILYFQS” value was found to be 0.094, the “area with substrate ELLYFQS” value turned out to be 0.0995 and the “area with substrate EMLYFQS” value turned out to be 0.112. The “area with substrate EPLYFQS” value was found to be 0.122, the “area with substrate ETLYFQS” value came to 0.13 and the “area with substrate EVLYFQS” value turned out to be 0.0994.
In the case of K185Y, the “area with substrate EALYFQS” value was 0.119, the “area with substrate ECLYFQS” value was determined as 0.102, the “area with substrate EDLYFQS” value was determined as 0.123 and the “area with substrate EELYFQS” value is 0.0912. Further, the “area with substrate EGLYFQS” value was 0.0906, the “area with substrate EILYFQS” value was found to be 0.0727, the “area with substrate EKLYFQS” value was determined as 0.111 and the “area with substrate ELLYFQS” value was determined as 0.0668. The “area with substrate EMLYFQS” value is 0.105, the “area with substrate EPLYFQS” value stood at 0.184, the “area with substrate EQLYFQS” value came out at 0.118 and the “area with substrate ERLYFQS” value was 0.0939. For the same variant, the “area with substrate ESLYFQS” value is 0.0933, the “area with substrate EVLYFQS” value amounted to 0.0999 and the “area with substrate EWLYFQS” value amounted to 0.135.
Turning to K185D, the “area with substrate EALYFQS” value worked out at 0.112, the “area with substrate EELYFQS” value turned out to be 0.117, the “area with substrate EMLYFQS” value was 0.12 and the “area with substrate ERLYFQS” value worked out at 0.113. Moreover, the “area with substrate ETLYFQS” value was found to be 0.124.
Take G153A: the “area with substrate EALYFQS” value was found to be 0.0591, the “area with substrate ECLYFQS” value is 0.0572, the “area with substrate EELYFQS” value came to 0.051 and the “area with substrate EKLYFQS” value was 0.0665. For the same variant, the “area with substrate EMLYFQS” value came to 0.0586 and the “area with substrate ESLYFQS” value stood at 0.0612.
With G153H, the “area with substrate EALYFQS” value was 0.0388, the “area with substrate ECLYFQS” value was found to be 0.0284, the “area with substrate EDLYFQS” value worked out at 0.053 and the “area with substrate EFLYFQS” value was 0.0328. The “area with substrate EILYFQS” value was found to be 0.0494, the “area with substrate EKLYFQS” value turned out to be 0.0454, the “area with substrate EMLYFQS” value turned out to be 0.0399 and the “area with substrate EQLYFQS” value was found to be 0.0474. For the same variant, the “area with substrate ESLYFQS” value came out at 0.0528, the “area with substrate ETLYFQS” value was found to be 0.0472, the “area with substrate EVLYFQS” value worked out at 0.0388 and the “area with substrate EWLYFQS” value stood at 0.0373. Also, the “area with substrate EYLYFQS” value is 0.0441.
